This note sets out measurements from PubChem BioAssay (NCI).

The test system of this experiment is NCI-H322M lung. Description: NCI tumour cell line growth inhibition, 48 h.

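A five-concentration, 48-hour dose response in 96-well plates underlies each endpoint, interpolated linearly between surrounding concentrations. GI50: concentration for 50% inhibition of growth. At the TGI there is no net growth.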

In the case of `C#CCN(C)CCCOc1ccc(NCc2ccc(/C=C/C(=O)NO)cc2)cc1Cl`, the GI50 was 740 nM and the TGI is 7.38 µM.
